Results taken from article PMC4336329 (PLoS ONE, 2015).
The campaign covered roughly 310,000 compounds. About 14,000 (4.5%) showed an effect of 50% or more. The effect is printed as a negative number. The list shows a part of the results.

biological target: human ether-à-go-go-related gene (hERG) potassium channel (human, UniProt Q12809); assay: primary screen, population patch clamp on CHO cells stably expressing hERG
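Further: peak tail current of the secondary pulse compared with the same well before compound.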

Sequence of human ether-à-go-go-related gene (hERG) potassium channel (Q12809 whole entry, looked up): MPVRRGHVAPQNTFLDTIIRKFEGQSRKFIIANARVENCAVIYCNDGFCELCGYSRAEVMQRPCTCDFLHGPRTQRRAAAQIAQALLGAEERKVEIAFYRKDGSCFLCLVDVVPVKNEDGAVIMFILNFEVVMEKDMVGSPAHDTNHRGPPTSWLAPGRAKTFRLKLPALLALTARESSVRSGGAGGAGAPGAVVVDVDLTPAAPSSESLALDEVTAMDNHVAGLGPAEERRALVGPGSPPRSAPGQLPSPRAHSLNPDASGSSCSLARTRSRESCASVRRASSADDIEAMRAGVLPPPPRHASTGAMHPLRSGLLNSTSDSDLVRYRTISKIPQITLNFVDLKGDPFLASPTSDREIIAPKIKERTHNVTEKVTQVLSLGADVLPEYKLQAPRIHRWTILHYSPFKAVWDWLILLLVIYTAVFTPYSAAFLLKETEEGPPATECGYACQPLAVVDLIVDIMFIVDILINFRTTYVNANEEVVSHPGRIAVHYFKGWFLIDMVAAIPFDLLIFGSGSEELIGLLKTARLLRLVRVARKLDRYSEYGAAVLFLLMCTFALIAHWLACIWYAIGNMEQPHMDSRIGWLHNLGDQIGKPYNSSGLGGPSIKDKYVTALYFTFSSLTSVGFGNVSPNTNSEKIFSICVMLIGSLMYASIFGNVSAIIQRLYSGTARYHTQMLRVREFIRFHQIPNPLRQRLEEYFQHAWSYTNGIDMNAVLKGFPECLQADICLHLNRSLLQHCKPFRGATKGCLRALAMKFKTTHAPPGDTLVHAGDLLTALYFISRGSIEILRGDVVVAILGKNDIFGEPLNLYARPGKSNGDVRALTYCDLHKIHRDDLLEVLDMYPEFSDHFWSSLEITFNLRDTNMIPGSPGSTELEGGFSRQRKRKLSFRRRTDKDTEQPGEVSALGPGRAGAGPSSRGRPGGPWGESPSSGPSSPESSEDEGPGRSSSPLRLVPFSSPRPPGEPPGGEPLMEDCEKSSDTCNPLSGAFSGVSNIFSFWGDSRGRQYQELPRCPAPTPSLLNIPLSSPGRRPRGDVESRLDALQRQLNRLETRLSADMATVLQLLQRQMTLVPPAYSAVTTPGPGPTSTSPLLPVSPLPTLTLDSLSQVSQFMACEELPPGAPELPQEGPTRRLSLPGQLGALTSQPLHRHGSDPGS

SMILES	hERG current change (%, negative = inhibition) at 10uM
O=C1CNC(=O)/C(=C/c2ccco2)N1	23.3%
O=C(COC(=O)c1cc(-c2cccs2)nc2ccccc12)NC1CCS(=O)(=O)C1 (centres unmarked)	-41.3%
Oc1ccc(/C=N/NC(=S)NCc2ccco2)cc1	-10.7%
CCOC(=O)C1CN(S(=O)(=O)c2cc(OC)ccc2OC)C1	13.7%
Cn1c(N)c(C(=O)CSc2nc3ccccc3c(=O)n2CCCN2CCOCC2)c(=O)n(C)c1=O	2.7%
CCOC(=O)C1CCN(C(=O)COc2ccc(N(C)S(=O)(=O)c3cccs3)cc2)CC1	-44.8%
O=Cc1c(NCCc2cccc(F)c2)c2ccccc2[nH]c1=O	-5.02%
CN(C)C1C(=O)C(C(N)=O)=C(O)C2(O)C(=O)C3=C(O)c4c(O)cccc4C(C)(O)C3C(O)C12 (centres unmarked)	3.94%
Cc1ccc(-n2nc3c(c2NC(=O)c2cc4ccccc4o2)CS(=O)(=O)C3)cc1	-26.1%
Cc1ccc2c(c1)N(C(=O)CCC(=O)N1CCN(c3ccccn3)CC1)CCO2	-52.2%
CCOC(=O)c1ccc(NS(=O)(=O)c2ccc(Cl)nc2)cc1	24.5%
COc1cccc(/C(O)=C2/C(=O)C(=O)N(CCCN3CCOCC3)C2c2ccncc2)c1 (centres unmarked)	13.5%
Cc1cc(=O)oc(C)c1C(=O)N1CCCc2ccccc21	7.6%
Cc1ccc(Cn2c(=O)c3c(ncn3C)n(C)c2=O)cc1	8.05%
COc1ccc2cc[nH]c2c1	7.29%
COc1ccccc1CNc1ccc2nnc(CCNC(=O)c3ccccc3)n2n1	-11.4%
O=C1C=C(Nc2ccc(O)cc2)CC(c2ccco2)C1 (centres unmarked)	0.756%
O=C(/C=C/c1ccc(F)cc1)NC(=S)N1C[C@H]2C[C@H](C1)c1cccc(=O)n1C2	-22.9%
Cc1ccccc1NS(=O)(=O)c1ccc(C(=O)NNC(=O)c2ccccc2O)cc1	3.76%
N#C/C(=C\c1cn[nH]c1-c1ccc(Cl)cc1)C(=O)NC1CC1	-28.3%
Cc1cc(C)cc(N(CC(=O)NC2CCCC2)C(=O)CCC(=O)Nc2nc(C)cs2)c1	1.22%
CCOc1ccccc1CN1CCNC(=O)C1CC(=O)NCCCn1cccn1 (centres unmarked)	8.2%

SMILES	hERG current change (%, negative = inhibition) at 10uM
CCOc1ccccc1NC(=O)Cn1nnc(C(=O)NCc2ccco2)c1N	1.52%
Cc1ccc(CNC2=NCCS2)cc1	1.97%
O=C(N/N=C/c1cccnc1)c1ccc(S(=O)(=O)N2CCCCCC2)cc1	12.2%
O=C(CSc1nnc(Cn2nnc3ccccc32)o1)N(Cc1ccc(F)cc1)c1ccccc1	-20.6%
CCCc1nnc(NC(=O)C(C)N2C(=O)C3C4C=CC(C4)C3C2=O)s1 (centres unmarked)	-9.2%
O=C(CCCN1C(=O)C(c2ccccc2)Oc2cccnc21)Nc1cccc(F)c1 (centres unmarked)	-50.2%
COc1ccc(F)cc1C(=O)C1CCCN(C(=O)c2ccccc2N(C)C)C1 (centres unmarked)	-19.2%
COc1ccc(Nc2oc(COc3ccccc3OC)nc2C#N)cc1	-0.599%
Cc1ccccc1CN(c1ccc(C(=O)Nc2cccnc2)cc1)S(C)(=O)=O	-9.59%
CCc1ccc2[nH]c(=O)c(Cc3ccccc3)c(O)c2c1	-3.05%
COC(=O)c1ccc(NC(=O)c2cccc(N3C(=O)C4C5C=CC(C6CC56)C4C3=O)c2)cc1 (centres unmarked)	6.62%
OCCNc1nc(C2CC2)nc2c1nnn2Cc1ccccc1Cl	-0.392%
Cc1cc(C(=O)N/N=C/c2cccc(Cl)c2Cl)no1	-2.72%
COc1ccc(OC)c(S(=O)(=O)N(C)CC(=O)Nc2cc(Cl)ccc2OC)c1	-27.2%
COc1ccccc1CNC(=O)CCc1c(C)nc2cc(-c3ccccc3OC)nn2c1C	-11.5%
CN(C)CCCn1c(SCC(=O)Nc2nccs2)nnc1-c1ccncc1	24.2%
Cl.c1ccc(OCCN2C3=NCCN3c3ccccc32)cc1	-73.3%
Cc1onc(-c2ccccc2)c1C(=O)N/N=C/c1ccco1	7.72%
CCCCS(=O)(=O)/C=C\C=C/S(=O)(=O)CCCC	-23.9%
Cc1onc(-c2ccccc2)c1C(=O)NC(=S)NNC(=O)c1ccco1	15.9%
Cc1sc2ncn(Cc3ccccc3F)c(=O)c2c1C	-35.8%
CC(=O)Oc1ccc2oc(-c3ccccc3)c(C(N)=O)c2c1	-14.1%
